In PubChem BioAssay AID1671188 (National Center for Advancing Translational Sciences (NCATS), 2021):
Several values for one entry are separate records, joined by “and”; a condition that tells them apart may be missing. Identical values can stand only once. The whole screen tested about 100,000 compounds, of which about 250 (0.25%) were called active. The shares of active, inactive and inconclusive entries below differ from those in the screen. Calls come from the whole dose curve; as a rule, active = well fitted inhibition curve with a large enough effect; inconclusive = small, poorly fitted or top-dose-only effect; inactive = flat fitted curve, though single readings scatter. No potency is given beside an inconclusive call; the fits are too rough.

target: Alanine aminotransferase 2 (Homo sapiens) (UniProt Q8TD30); assay: Primary qHTS assay for inhibitors of Glutamate pyruvate transaminase 2 (GPT2); details: Recombinant GPT2, coupled pyruvate oxidase/HRP Amplex Red fluorescence; activity change, negative = inhibition: at 57.7 µM (top of the series) unless noted; series mostly up to 57.7 µM; note: nearly all actives have a fitted effect of over 60% in size
Sequence of UniProt Q8TD30 (Q8TD30 whole entry, looked up): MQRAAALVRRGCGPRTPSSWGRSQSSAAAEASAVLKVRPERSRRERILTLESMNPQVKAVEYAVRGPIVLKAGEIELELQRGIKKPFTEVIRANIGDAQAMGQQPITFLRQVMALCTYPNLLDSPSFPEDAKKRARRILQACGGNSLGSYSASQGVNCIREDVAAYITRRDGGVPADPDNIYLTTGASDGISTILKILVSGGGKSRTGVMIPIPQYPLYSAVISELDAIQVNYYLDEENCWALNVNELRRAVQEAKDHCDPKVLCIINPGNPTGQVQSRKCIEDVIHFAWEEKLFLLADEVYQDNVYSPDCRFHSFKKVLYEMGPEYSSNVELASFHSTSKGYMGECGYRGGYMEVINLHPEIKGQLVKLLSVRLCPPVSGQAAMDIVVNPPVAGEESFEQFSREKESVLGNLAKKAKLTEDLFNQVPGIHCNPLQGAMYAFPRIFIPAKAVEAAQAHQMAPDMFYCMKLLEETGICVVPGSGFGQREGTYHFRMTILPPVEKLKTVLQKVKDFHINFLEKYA
Procedure, shortened: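 Fluorescence read-out: pyruvate from GPT2 turnover coupled to pyruvate oxidase, HRP and Amplex Red (0.2mM ThPP, 0.2U/mL PO and HRP, 50uM Amplex final). Substrates 250uM a-KG, 2mM L-alanine; enzyme 10ng/uL; 30 min RT.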
% is set by controls: 0 for no effect and ±100 for the full control effect; potency is the fitted concentration of half-maximal effect; tags give direction and shape of the fitted curve.

SMILES	activity change, negative = inhibition	Potency	outcome
O=C(N[C@H]1[C@H](O)[C@H](O)C[C@@H]1c1ccc(C(F)(F)F)cc1)c1ccc2c(c1)OCCO2	inactive: -5.56% [at 88.5 µM]	–	–
CCOC(=O)C1CCCN(C(=O)c2ccc3oc(-c4cccnc4C)nc3c2)C1 (stereo unspecified)	–	inconclusive [inhibitor, single point]	–
COc1ccc(C)cc1NC(=O)N1C[C@@H](F)C[C@H]1C(=O)N1CCCCC1	inactive: 4.42%	–	–
COc1cccc(-c2cn3cc(C(=O)NCc4cccs4)nc3s2)c1	–	inconclusive [inhibitor, single point]	–
COCc1nc(-c2ccc(OC3CN(Cc4ccsc4)C3)cc2)no1	inactive: 0.234%	–	–
CCCNC(=O)NC[C@H]1O[C@@H]2C[C@@H](CC(=O)NCCOC)O[C@@H]2[C@@H]1O	–	–	inactive [at 88.5 µM]
COc1cccc(-c2noc(-c3nc(-c4ccc5c(c4)OCO5)no3)n2)c1OC	inactive: -17.4%	–	–
COc1cccc(-c2ccc(CN3CCCC(NC(=O)c4ccc(Cl)nc4)C3)cc2)c1 (stereo unspecified)	–	inconclusive [inhibitor, single point]	–
COc1cc(CN2CCCC23Cc2ccccc2CNC3=O)ccc1F (stereo unspecified)	–	inconclusive [inhibitor, partial curve, poor fit]	–
CCN(CC)C(=O)/C(C#N)=C/c1cc(O)c(O)c([N+](=O)[O-])c1	–	active: 8.91 µM	–
COc1ccc(-c2cc(N3CCCC(NC(=O)c4ccc(Br)o4)C3)n[nH]2)cc1 (stereo unspecified)	–	inconclusive [inhibitor, single point]	–
O=C(O)c1cc(O)c2cccc(O)c2c1O[C@@H]1O[C@H](CO)[C@@H](O)[C@H](O)[C@H]1O	–	inconclusive [inhibitor, single point]	–
O=C(NCCNc1cccnc1)C1CCC(=O)N(CCc2ccc(Cl)cc2)C1 (stereo unspecified)	–	inconclusive [inhibitor, single point]	–
COc1ccc(C)cc1NC(=O)c1c(OC)cc(=O)n2c1CCCC2	–	–	inactive
O=C1C(N2CCN(S(=O)(=O)c3ccc(F)c(F)c3)CC2)CCN1CCc1ccccc1 (stereo unspecified)	–	inconclusive [inhibitor, single point]	–
COc1ccc(-c2[nH]nc3ncc(-c4cccnc4OC)nc23)c(C)c1	inactive: -1.11% [at 88.5 µM]	–	–
O=C(c1ccc(F)cc1)N1CCN(Cc2ccccc2-c2ccccc2F)CC1	–	inconclusive [inhibitor, single point]	–
COc1ccc(CC(=O)N2Cc3ccccc3CC23CCCN(C(=O)CN)C3)cc1 (stereo unspecified)	–	inconclusive [inhibitor, partial curve]	–
CCCN1CCN(C(=O)c2c(C)oc3c2CN(Cc2ccc(C)cc2)CC3)CC1	–	–	inactive
CCOc1ccccc1CN1CCC2(CCN(C(=O)c3ccccc3)CC2)Oc2ccccc21	–	inconclusive [inhibitor, full curve, poor fit]	–
C[C@@H]1CC[C@]2(C(=O)O)CC[C@]3(C)C(=CCC4[C@]5(C)C(CC[C@]43C)C(C)(C)[C@@H](O)[C@H](O)[C@@H]5O)C2[C@]1(C)O (stereo partly specified)	–	inconclusive [inhibitor, single point]	–
O=C(Nc1ccccc1)N1CCC(F)(c2nc(Cc3ccccc3)no2)CC1	–	inconclusive [inhibitor, single point]	–

SMILES	activity change, negative = inhibition	Potency	outcome
CC(=O)N1CCC2(CC1)C(=NC1CCCC1)NC(=O)N2c1cc(F)cc(F)c1	–	inconclusive [inhibitor, single point]	–
Cc1nc2c(c(-c3ccc(Cl)cc3)n1)CCN([S+](=O)([O-])c1cccs1)CC2	–	inconclusive [inhibitor, single point]	–
CS(=O)(=O)N1C[C@H]2CCN(Cc3c(F)cccc3Cl)C[C@H]21	–	–	inactive
Cc1c(CC(=O)N(C)C(C)C)c2c(n1Cc1ccccc1F)CCCC2=O	–	inconclusive [inhibitor, partial curve, poor fit]	–
COc1ccccc1-c1cccc(C(=O)N2CCN(C(=O)Cc3ccccn3)CC2)c1	inactive: -8.02%	–	–
C[C@@H]1CN(C(=O)c2cccnc2SCCc2ccccc2)CC[C@]1(C)O	–	inconclusive [inhibitor, single point]	–
COc1ccc(CN2C[C@H]3CN(Cc4ccc(C(F)(F)F)cc4)CCN3C2=O)cc1	inactive: -12.2% [at 88.5 µM]	–	–
Cn1cc(C(=O)NCC2CN([S+](=O)([O-])c3ccccc3Cl)CC23CN(c2ccccc2)C3)cn1 (stereo unspecified)	–	inconclusive [inhibitor, single point]	–
FC(F)(F)c1ccc2nc([C@H]3CCN(Cc4ccc(Cl)cc4)C3)[nH]c2c1	inactive: 1.76% [at 88.5 µM]	–	–
CCC(=O)Nc1cccc(C2OC(=O)N(Cc3ccc(C)cc3)C2C(=O)Nc2ccc(F)cc2)c1 (stereo unspecified)	–	inconclusive [inhibitor, partial curve]	–
O=C(CC[C@@H]1CNC(=O)[C@@H]2C[C@H](NS(=O)(=O)c3ccc(F)cc3)CN12)NCc1ccccc1	–	inconclusive [inhibitor, partial curve, poor fit]	–
Cc1coc2c1C(=O)C(=O)c1c-2ccc2c1CCCC2(C)C	–	active: 24.3 µM and active: 14.1 µM	–
O=C(Cc1ccccn1)N1CCC2(CC1)Cc1ccccc1NC2=O	–	inconclusive [inhibitor, full curve]	–
Cc1noc2c(-c3ccc(N4CCOCC4)cc3)cc(-c3cccnc3)nc12	–	inconclusive [inhibitor, full curve]	–
CCC(C)(C)C(=O)NCc1cc2c(nc1OC)CN(C1CCCC1)C2=O	–	inconclusive [inhibitor, partial curve, poor fit]	–
O=C(NC1CCN(c2cc(-c3cccs3)[nH]n2)C1)c1ccccc1Cl (stereo unspecified)	–	inconclusive [inhibitor, partial curve]	–
O=C(NCc1cccc(Cl)c1)c1nc2cccnc2n(CCc2ccccc2)c1=O	–	–	inactive
CC(=O)N(C1CC1)C1CCOC2(CCN(C(=O)c3n[nH]c4ccccc34)CC2)C1 (stereo unspecified)	–	–	inactive
O=C(c1ccc(Cl)cc1)N1CCC2(CC1)CC(=O)N(c1ccccc1)c1ccccc1O2	–	–	inactive
Cc1ccc(-c2noc([C@@H]3Cc4nc[nH]c4CN3C(=O)Nc3ccc(Cl)cc3)n2)cc1	–	inconclusive [inhibitor, single point]	–
O=C1C[C@@H]2CCN(Cc3ccccc3)C[C@@H]2CCN1C1CCCCC1	–	inconclusive [inhibitor, full curve, poor fit]	–
COc1ccc(NC(=O)Cn2c(N(C)Cc3ccccc3)nc(C)cc2=O)cc1	–	–	inactive

SMILES	activity change, negative = inhibition	Potency	outcome
Oc1cc2c(cc1O)CN(C(=S)NCCc1ccc(Cl)cc1)CCC2	–	inconclusive [inhibitor, single point]	–
COc1cccc(C(=O)N2CCC(C(NC(=O)c3ccccc3)C(=O)NCc3ccco3)CC2)c1 (stereo unspecified)	–	–	inactive
O=C(O)c1ccc(CN2Cc3[nH]cnc3C[C@H]2c2nc(-c3ccc(F)cc3)no2)cc1	inactive: 2.31% [at 88.5 µM]	–	–
COC[C@@H]1[C@H](NC(=O)c2ccc(Cn3nnnc3C)cc2)[C@@H]2CCO[C@H]12	–	inconclusive [inhibitor, full curve]	–
Cc1cnc(CC2CCN(C(=O)Nc3ccc4c(c3)OCCO4)C2)n1C1CC1 (stereo unspecified)	–	inconclusive [inhibitor, single point]	–
CCC(C)C(=O)N1CCc2[nH]nc(C(=O)NCCCc3ccccc3)c2C1 (stereo unspecified)	–	–	inactive
CC(=O)c1cccc(N2C(=O)[C@@H]3[C@@H](CCN3C(=O)C(C)(C)C)N(Cc3cccc(F)c3)C2=O)c1	–	inconclusive [inhibitor, single point]	–
CCN1CC(c2ccccc2)CC2(CCN(C(=O)c3ccon3)CC2)C1 (stereo unspecified)	inactive: -11.7%	–	–
C[C@H](C(=O)N(C)CCC#N)C1CC[C@@]2(C)Cc3sc(NC(=O)C4CC4)nc3[C@@H](C)[C@@H]2[C@H]1O (stereo partly specified)	inactive: 1.76%	–	–
Cc1cnc(CC2CCN(C(=O)NCC(C)C)CC2)n1Cc1ccc(F)cc1	inactive: 3.24%	–	–
CCOc1cc(=O)n2c(c1C(=O)NCCCN1CCCc3ccccc31)CCCCC2	–	inconclusive [inhibitor, partial curve, poor fit]	–
Cc1ccc(-c2noc([C@@H]3Cc4nc[nH]c4CN3C(=O)CCC(=O)O)n2)cc1	–	inconclusive [inhibitor, single point]	–
Cc1ccc(-c2noc(CCCC(=O)N3CCC(CCOc4ccccc4F)C3)n2)cc1 (stereo unspecified)	inactive: -1.65%	–	–
COc1ccc2[nH]c3c(c2c1)CCNC31CCN(C(=O)c2ccc(OC)nc2)CC1	inactive: -24%	–	–
CC(C)c1ccc(CC(=O)N2CCCc3ncc(C(=O)N4CCCC[C@@H]4c4ccccc4)cc32)cc1	inactive: -4.37%	–	–
COc1cc(C)ccc1OCc1cc(C(=O)NCc2n[nH]c3c2CCC3)no1	–	inconclusive [inhibitor, single point]	–
Cc1ccccc1CNC(=O)c1cc2cn(C(C)C)cc2s1	–	inconclusive [inhibitor, partial curve]	–
O=c1c2nc(NCCOc3ccccc3)ccc2ncn1Cc1ccccc1	–	inconclusive [inhibitor, partial curve]	–
O=C(NCC1CCN(c2cc(-c3ccc(F)cc3)[nH]n2)CC1)c1n[nH]c2c1CCCC2	–	inconclusive [inhibitor, partial curve, poor fit]	–
c1ccc(-c2ccnc(NCCOc3cccc4cccnc34)n2)nc1	–	inconclusive [inhibitor, partial curve, poor fit]	–
O=C(C1CC(=O)N(c2ccc(F)c(Cl)c2)C1)N1CCc2c(nc[nH]c2=O)C1 (stereo unspecified)	–	–	inactive
Nc1ncccc1CN1CCCC12CCN(c1ccc(C(F)(F)F)cn1)CC2	–	inconclusive [inhibitor, single point]	–
